The other results are listed elsewhere or left out.
How the values were obtained:
Test in all cases: glycan array binding signal (z-score within array); higher = stronger binding
Conditions in all cases: glycan notation: IUPAC condensed, linker removed
Fuc(a1-2)Gal = biological target: Fuc(a1-2)Gal
Outline: (§1)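 Glycan array data came from 3228 arrays in the Consortium for Functional Glycomics database, and only arrays with an available protein sequence were kept. Glycan names were put into IUPAC-condensed notation, and columns mapping to the same glycan were averaged. The binding signal is a within-array Z-score, averaged across arrays of one protein sequence run at different concentrations or buffers and across linkers. A negative Z-score can be read as non-binding.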

Fuc(a1-2)Gal(b1-3)GalNAc = biological target: Fuc(a1-2)Gal(b1-3)GalNAc
Outline: as §1

[1] = biological target: Fuc(a1-2)Gal(b1-3)GalNAc(b1-3)Gal
Outline: as §1

[2] = biological target: Fuc(a1-2)Gal(b1-3)GalNAc(b1-3)Gal(a1-4)Gal(b1-4)Glc
Outline: as §1

[3] = biological target: Fuc(a1-2)Gal(b1-3)GalNAc(b1-4)[Neu5Ac(a2-3)]Gal(b1-4)Glc
Outline: as §1

Fuc(a1-2)Gal(b1-3)GlcNAc = biological target: Fuc(a1-2)Gal(b1-3)GlcNAc
Outline: as §1

[4] = biological target: Fuc(a1-2)Gal(b1-3)[Fuc(a1-4)]GlcNAc
Outline: as §1

Fuc(a1-2)Gal(b1-4)Glc = biological target: Fuc(a1-2)Gal(b1-4)Glc
Outline: as §1

Fuc(a1-2)Gal(b1-4)GlcNAc = biological target: Fuc(a1-2)Gal(b1-4)GlcNAc
Outline: as §1

[5] = biological target: Fuc(a1-2)Gal(b1-4)GlcNAc(b1-3)Gal(b1-4)GlcNAc
Outline: as §1

[6] = biological target: Fuc(a1-2)Gal(b1-4)GlcNAc(b1-3)Gal(b1-4)GlcNAc(b1-3)Gal(b1-4)GlcNAc
Outline: as §1

[7] = biological target: Fuc(a1-2)Gal(b1-4)[Fuc(a1-3)]GlcNAc
Outline: as §1

Fuc(a1-2)GlcNAc = biological target: Fuc(a1-2)GlcNAc
Outline: as §1

Fuc(a1-2)[Gal(a1-3)]Gal = biological target: Fuc(a1-2)[Gal(a1-3)]Gal
Outline: as §1

[8] = biological target: Fuc(a1-2)[Gal(a1-3)]Gal(b1-4)GlcNAc
Outline: as §1

[9] = biological target: Fuc(a1-2)[Gal(a1-4)]Gal(b1-4)GlcNAc
Outline: as §1

[10] = biological target: Fuc(a1-2)[GalNAc(a1-3)]Gal
Outline: as §1

[11] = biological target: Fuc(a1-2)[GalNAc(a1-3)]Gal(b1-4)GlcNAc
Outline: as §1

[12] = biological target: Fuc(a1-2)[GalNAc(a1-4)]Gal(b1-4)GlcNAc
Outline: as §1

[13] = biological target: Fuc(a1-2)[GalNAc(b1-3)]Gal
Outline: as §1

Fuc(a1-3)GlcNAc = biological target: Fuc(a1-3)GlcNAc
Outline: as §1

[14] = biological target: Fuc(a1-3)[Gal(b1-4)]GlcNAc
Outline: as §1

[15] = biological target: Fuc(a1-3)[Gal(b1-4)]GlcNAc(b1-3)Gal(b1-4)[Fuc(a1-3)]GlcNAc
Outline: as §1

[16] = biological target: Fuc(a1-3)[Gal(b1-4)]GlcNAc(b1-3)Gal(b1-4)[Fuc(a1-3)]GlcNAc(b1-3)Gal(b1-4)[Fuc(a1-3)]GlcNAc
Outline: as §1

[17] = biological target: Fuc(a1-3)[Gal3S(b1-4)]GlcNAc
Outline: as §1

Fuc(b1-3)GlcNAc = biological target: Fuc(b1-3)GlcNAc
Outline: as §1

Gal(a1-2)Gal = biological target: Gal(a1-2)Gal
Outline: as §1

Gal(a1-3)Gal = biological target: Gal(a1-3)Gal
Outline: as §1

Gal(a1-3)Gal(b1-4)Glc = biological target: Gal(a1-3)Gal(b1-4)Glc
Outline: as §1

Gal(a1-3)Gal(b1-4)GlcNAc = biological target: Gal(a1-3)Gal(b1-4)GlcNAc
Outline: as §1

[18] = biological target: Gal(a1-3)Gal(b1-4)[Fuc(a1-3)]GlcNAc
Outline: as §1

Gal(a1-3)GalNAc = biological target: Gal(a1-3)GalNAc
Outline: as §1

[19] = biological target: Gal(a1-3)[Gal(a1-4)]Gal(b1-4)GlcNAc
Outline: as §1

Gal(a1-4)Gal(b1-4)Glc = biological target: Gal(a1-4)Gal(b1-4)Glc
Outline: as §1

Gal(a1-4)Gal(b1-4)GlcNAc = biological target: Gal(a1-4)Gal(b1-4)GlcNAc
Outline: as §1

Gal(a1-4)GlcNAc = biological target: Gal(a1-4)GlcNAc
Outline: as §1

Gal(a1-6)Glc = biological target: Gal(a1-6)Glc
Outline: as §1

Gal(b1-2)Gal = biological target: Gal(b1-2)Gal
Outline: as §1

Gal(b1-3)Gal = biological target: Gal(b1-3)Gal
Outline: as §1

Gal(b1-3)GalNAc = biological target: Gal(b1-3)GalNAc
Outline: as §1

[20] = biological target: Gal(b1-3)GalNAc(b1-4)Gal(b1-4)Glc
Outline: as §1

[21] = biological target: Gal(b1-3)GalNAc(b1-4)[Neu5Ac(a2-3)]Gal(b1-4)Glc
Outline: as §1

Gal(b1-3)GlcNAc = biological target: Gal(b1-3)GlcNAc
Outline: as §1

[22] = biological target: Gal(b1-3)GlcNAc(b1-3)Gal(b1-4)Glc
Outline: as §1

[23] = biological target: Gal(b1-3)[Fuc(a1-4)]GlcNAc
Outline: as §1

[24] = biological target: Gal(b1-3)[GlcNAc(b1-6)]GalNAc
Outline: as §1

[25] = biological target: Gal(b1-3)[Neu5Ac(a2-6)]GalNAc
Outline: as §1

[26] = biological target: Gal(b1-3)[Neu5Ac(a2-6)]GlcNAc(b1-4)Gal(b1-4)Glc
Outline: as §1

[27] = biological target: Gal(b1-3)[Neu5Ac(b2-6)]GalNAc
Outline: as §1

[28] = biological target: Gal(b1-4)GalNAc(a1-3)[Fuc(a1-2)]Gal(b1-4)GlcNAc
Outline: as §1

Gal(b1-4)Glc = biological target: Gal(b1-4)Glc
Outline: as §1

Gal(b1-4)Glc6S = biological target: Gal(b1-4)Glc6S
Outline: as §1

Gal(b1-4)GlcNAc = biological target: Gal(b1-4)GlcNAc
Outline: as §1

[29] = biological target: Gal(b1-4)GlcNAc(b1-3)Gal(b1-4)Glc
Outline: as §1

[30] = biological target: Gal(b1-4)GlcNAc(b1-3)Gal(b1-4)GlcNAc
Outline: as §1

[31] = biological target: Gal(b1-4)GlcNAc(b1-3)Gal(b1-4)GlcNAc(b1-3)Gal(b1-4)GlcNAc
Outline: as §1

[32] = biological target: Gal(b1-4)GlcNAc(b1-3)Gal(b1-4)[Fuc(a1-3)]GlcNAc(b1-3)Gal(b1-4)[Fuc(a1-3)]GlcNAc
Outline: as §1

[33] = biological target: Gal(b1-4)GlcNAc(b1-3)GalNAc
Outline: as §1

[34] = biological target: Gal(b1-4)GlcNAc(b1-3)[Gal(b1-4)GlcNAc(b1-6)]GalNAc
Outline: as §1

[35] = biological target: Gal(b1-4)GlcNAc(b1-6)GalNAc
Outline: as §1

B1: RegIIIbeta (Mus musculus), P35230 (protein)
chain: MLPPTACSVMSWMLLSCLMLLSQVQGEDSLKNIPSARISCPKGSQAYGSYCYALFQIPQTWFDAELACQKRPGGHLVSVLNSAEASFLSSMVKRTGNSYQYTWIGLHDPTLGAEPNGGGWEWSNNDVMNYFNWERNPSTALDRAFCGSLSRASGFLKWRDMTCEVKLPYVCKFTG
glycan array binding signal (z-score) (Fuc(a1-2)Gal): -0.114
glycan array binding signal (z-score) (Fuc(a1-2)Gal(b1-3)GalNAc): -0.079
glycan array binding signal (z-score) [1]: -0.108
glycan array binding signal (z-score) [2]: -0.111
glycan array binding signal (z-score) [3]: -0.043
glycan array binding signal (z-score) (Fuc(a1-2)Gal(b1-3)GlcNAc): -0.104
glycan array binding signal (z-score) [4]: -0.098
glycan array binding signal (z-score) (Fuc(a1-2)Gal(b1-4)Glc): -0.114
glycan array binding signal (z-score) (Fuc(a1-2)Gal(b1-4)GlcNAc): -0.116
glycan array binding signal (z-score) [5]: -0.122
glycan array binding signal (z-score) [6]: 0.15
glycan array binding signal (z-score) [7]: -0.097
glycan array binding signal (z-score) (Fuc(a1-2)GlcNAc): -0.111
glycan array binding signal (z-score) (Fuc(a1-2)[Gal(a1-3)]Gal): -0.087
glycan array binding signal (z-score) [8]: -0.098
glycan array binding signal (z-score) [9]: -0.125
glycan array binding signal (z-score) [10]: -0.094
glycan array binding signal (z-score) [11]: -0.107
glycan array binding signal (z-score) [12]: -0.04
glycan array binding signal (z-score) [13]: -0.111
glycan array binding signal (z-score) (Fuc(a1-3)GlcNAc): -0.114
glycan array binding signal (z-score) [14]: 0.028
glycan array binding signal (z-score) [15]: -0.102
glycan array binding signal (z-score) [16]: -0.122
glycan array binding signal (z-score) [17]: -0.12
glycan array binding signal (z-score) (Fuc(b1-3)GlcNAc): -0.024
glycan array binding signal (z-score) (Gal(a1-2)Gal): -0.111
glycan array binding signal (z-score) (Gal(a1-3)Gal): -0.097
glycan array binding signal (z-score) (Gal(a1-3)Gal(b1-4)Glc): -0.117
glycan array binding signal (z-score) (Gal(a1-3)Gal(b1-4)GlcNAc): -0.085
glycan array binding signal (z-score) [18]: -0.098
glycan array binding signal (z-score) (Gal(a1-3)GalNAc): -0.118
glycan array binding signal (z-score) [19]: 0.048
glycan array binding signal (z-score) (Gal(a1-4)Gal(b1-4)Glc): -0.11
glycan array binding signal (z-score) (Gal(a1-4)Gal(b1-4)GlcNAc): -0.081
glycan array binding signal (z-score) (Gal(a1-4)GlcNAc): -0.112
glycan array binding signal (z-score) (Gal(a1-6)Glc): -0.06
glycan array binding signal (z-score) (Gal(b1-2)Gal): -0.101
glycan array binding signal (z-score) (Gal(b1-3)Gal): -0.105
glycan array binding signal (z-score) (Gal(b1-3)GalNAc): -0.104
glycan array binding signal (z-score) [20]: -0.104
glycan array binding signal (z-score) [21]: -0.059
glycan array binding signal (z-score) (Gal(b1-3)GlcNAc): -0.097
glycan array binding signal (z-score) [22]: -0.099
glycan array binding signal (z-score) [23]: -0.111
glycan array binding signal (z-score) [24]: -0.122
glycan array binding signal (z-score) [25]: -0.11
glycan array binding signal (z-score) [26]: -0.105
glycan array binding signal (z-score) [27]: 0.019
glycan array binding signal (z-score) [28]: 0.028
glycan array binding signal (z-score) (Gal(b1-4)Glc): -0.098
glycan array binding signal (z-score) (Gal(b1-4)Glc6S): -0.119
glycan array binding signal (z-score) (Gal(b1-4)GlcNAc): -0.085
glycan array binding signal (z-score) [29]: -0.103
glycan array binding signal (z-score) [30]: -0.12
glycan array binding signal (z-score) [31]: -0.121
glycan array binding signal (z-score) [32]: 0.026
glycan array binding signal (z-score) [33]: -0.119
glycan array binding signal (z-score) [34]: -0.091
glycan array binding signal (z-score) [35]: -0.121

— the supplement of paper PMC8728848
